Screen size: about 48,000 compounds; about 450 (0.94%) were called active. Roughly 19% stayed inconclusive and do not appear here. Calls come from the whole dose curve; as a rule, active = well fitted inhibition curve with a large enough effect; inconclusive = small, poorly fitted or top-dose-only effect; inactive = no such curve, though single readings can be large or run the other way. The list shows a part of the results.
test: Primary qHTS for Identification of Small Molecule Inhibitors of Huntingtin Promoter Activity; conditions: HEK293 HTT promoter firefly luciferase reporter (activity 0% = vehicle and -100% = no light), 24 h; series mostly up to 57.5 µM; activity change, negative = inhibition: at the top concentration; note: nearly all actives have a fitted effect of over 50% in size
Method in brief: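 HEK293 luciferase promoter-reporter cells (2,500/well) plated 24 h, then compounds added at up to 57.5 uM final for 24 h at 37 °C. Firefly luminescence by Dual-Glo, normalized to vehicle (0%) and zero RLU (-100%).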

Activity change, negative = inhibition, inactive:
CC(=O)[C@H]1CC[C@H]2[C@@H]3CC=C4C[C@@H](O)CC[C@]4(C)[C@H]3CC[C@]12C
COc1ccc(CC2c3cc(OC)c(OC)cc3CC[N+]2(C)CCC(=O)OCCCCCOC(=O)CC[N+]2(C)CCc3cc(OC)c(OC)cc3C2Cc2ccc(OC)c(OC)c2)cc1OC (stereo not drawn) 2.14% [at 11.5 µM]
COc1ccc(NC(=O)Cn2nnc(C(=O)NCc3ccco3)c2N)c(OC)c1 -14.5%
Cc1cc(Nc2cccc(Br)c2)n2c(nc3ccccc32)c1C#N -15%
Cc1ccc(N2CCN(C(=O)c3cn(C)c4ccc(S(=O)(=O)N5CCCC5)cc4c3=O)CC2C)cc1 (stereo not drawn) -5.29%
CCOc1ccc(NC(=O)CN2C(=O)c3ccccc3Sc3ccc(C(=O)OC)cc32)cc1 -23.1%
Cc1cc(C)cc(-n2c(SCC(=O)NCc3ccc(F)cc3)nc3c([nH]c4ccccc43)c2=O)c1 -10.8%
COc1cc(NC(=O)CSc2nc(-c3ccccc3)no2)cc(OC)c1 -18%
COC(=O)c1sc(-c2ccccc2)cc1NC(=O)c1cccc(Cl)c1 8.71%
O=C(Nc1nc(-c2ccccc2)ns1)c1ccc(Cl)cc1 -21.8%
CCOC(=O)N1CCc2c(sc(NCc3cccs3)c2C(=O)Nc2cc(Cl)ccc2OC)C1 -4.57%
CCN(CC)c1ccc(NC(=O)C2CCN(S(=O)(=O)c3ccc4c(c3)oc(=O)n4C)CC2)c(C)c1 -18.7%
CC(C(=O)O)c1ccc2c(c1)CC(=O)c1ccccc1S2 (stereo not drawn)
Cc1cccc(NC(=O)C(NS(=O)(=O)c2cccc3nsnc23)c2ccccc2)c1C (stereo not drawn) -15.3%
COc1ccc(CN(C(=O)c2cc(=O)c3ccccc3o2)C2CCS(=O)(=O)C2)cc1OC (stereo not drawn) -17.9%
COc1ccc(N2CCN(S(=O)(=O)c3cc(Br)cc4c3N(C(=O)C3CC3)CC4)CC2)cc1 -10.1%
CC(C)(C)OC(=O)N1CCC(c2c(C(=O)N3CCN(c4ccccn4)CC3)cnn2-c2cccc(F)c2)CC1 1.59%
Cc1ccc(NC(=O)Cn2c(=O)n(Cc3ccco3)c(=O)c3sc4ccccc4c32)c(C)c1 -12.3%
Cc1ccc(C(=O)NCC(c2ccco2)S(=O)(=O)c2ccccc2)cc1C (stereo not drawn) -14.9%
CCOC(=O)c1c(C)c(-c2ccccc2)n(CC(=O)NCc2ccccc2)c1C -3.16%
O=C(CSc1nccn1Cc1ccccc1)Nc1nc2ccccc2s1 26.2%
COc1ccc(OC)c(NC(=O)COCc2cc(-c3ccco3)on2)c1 -6.42%
Cc1cc(C)c(Cn2c(=O)n(Cc3ccccc3)c(=O)c3c(C)c(C)sc32)c(C)c1 1.09%
O=C(Nc1cccc(C(F)(F)F)c1)c1cc2nc(-c3ccco3)cc(C(F)(F)Cl)n2n1 -1.02%
Cc1ccc(S(=O)(=O)c2nnn(CC(=O)Nc3ccccc3C)c2N)cc1 -8.98%
COc1ccc(-n2nc(C(=O)N3CCCCC3)c3c4ccccc4n(C)c3c2=O)cc1Cl -4.9%
Cc1ccc(Cl)cc1NC(=O)CCn1cnc2ccccc2c1=O -19.5%
CCOC(=O)c1ccc(NC(=O)C2=C(C)C(=O)OC23CCN(C(C)=O)CC3)cc1 -1.63%
COc1cc(Nc2nc3ccc(Cl)cc3nc2-n2nc(C)cc2C)cc(OC)c1 0.182%
O=C(CN1C(=O)COc2ccc(S(=O)(=O)NC3CCCC3)cc21)NCc1ccccc1Cl -2.81%
Cn1ncc2c(Nc3cccc(C#N)c3)ncnc21 31%
Cc1cc(C)cc(NC(=O)C(=O)NCC(c2cccnc2)N2CCOCC2)c1 (stereo not drawn) -30.2%
Cc1nc(Nc2ncc(C(=O)Nc3c(C)cccc3Cl)s2)cc(N2CCN(CCO)CC2)n1 -30.7%
CC(=O)OCC(=O)[C@@]1(O)CC[C@H]2[C@@H]3CCC4=CC(=O)CC[C@]4(C)[C@@H]3C(=O)C[C@@]21C -4.83%
Cc1ccc(NC(=O)Cn2c(=O)n(CCC(C)C)c(=O)c3cccnc32)cc1C -9.03%
COc1ccc(Cl)cc1NC(=O)Cn1c(=O)n(Cc2ccc(F)cc2)c(=O)c2cccnc21 -24.8%
CCN(CCO)CCCC(C)Nc1ccnc2cc(Cl)ccc12 (stereo not drawn)
CC1CN(C(=O)N2CCC(C(=O)NCc3ccccc3F)CC2)c2cc(Cl)ccc2O1 (stereo not drawn) -28.6%
CCOc1ccc(NC(=O)C(C)n2c(=O)cc(-c3ccccc3)c3c(C)nn(C)c32)cc1 (stereo not drawn) 15.5%
COc1ccc(CCNC(=O)CN(c2ccccc2)S(=O)(=O)N(C)C)cc1 0.739%
COc1ccccc1-c1nn(CCC(=O)Nc2ccccc2)c2nc(C)cc(C)c12 -15.4%
Cc1ccc2nc(-c3ccc(C)s3)c(Nc3ccc4c(c3)OCCO4)n2c1 28.2%
O=C(Nc1ccc(F)c(F)c1)C(c1ccccc1)N1Cc2ccccc2C1=O (stereo not drawn) -11.7%
CCN(CC)CCNC(=O)c1cc2c(-c3cccc(OC)c3)nn(C)c2s1 -19.8%
CCOc1ccccc1NC(=O)Cn1c(=O)n(CCCC(=O)NCc2ccc(C)cc2)c(=O)c2ccccc21 -3.43%
Cc1ccc(C(=O)N2CCN(CCc3ccncc3)CC2)cc1 -15.7%
Cc1nn(C(C)C(=O)NCc2ccco2)c(=O)c2nn(-c3ccccc3)c(C)c12 (stereo not drawn) -16.1%
Cc1cccc2sc(N(Cc3cccnc3)C(=O)c3ccco3)nc12 -26.2%
COc1ccccc1OCC(=O)NCCS(=O)(=O)N1CCN(c2ccccc2OC)CC1 -14.2%
CCOC(=O)c1c(CSc2ccccc2)n(C)c2cc(Br)c(O)c(CN(C)C)c12 -14.7%
COc1ccc(NC(=O)C(NS(=O)(=O)c2cccc3nsnc23)C(C)C)cc1OC (stereo not drawn) -9.37% [at 11.5 µM]
COc1ccc(-c2nc(S(=O)(=O)c3ccccc3)c(N3CCC(C)CC3)o2)cc1 -2.97%
Oc1ccc(NCc2ccccc2OCc2ccccc2)cc1 -1.87%
COc1cccc(Nc2nc3c(S(=O)(=O)c4cc(C)ccc4C)nnn3c3ccsc23)c1 -11.2%
CC(=O)Nc1c(C)nn(-c2ccccc2)c1N1CCC(C(=O)Nc2ccccc2C(F)(F)F)CC1 17.6%
O=C(CN1c2ccc(Br)cc2-c2ccccc2S1(=O)=O)N1CCCCC1 78.2%
Cc1ccc(NC(=O)N2CCN(Cc3nc4ccc(C)cc4o3)CC2)cc1 -36.6%
CC(C)c1ccc2c(c1)c(SC(C)(C)C)c(CC(C)(C)C(=O)O)n2Cc1ccc(Cl)cc1 -33%
Cc1cc(=O)c2cc(C(=O)Nc3ccc(F)cc3)ccc2[nH]1 12.5%
Cc1cc(C)c(NC(=O)CSC2=Nc3ccccc3C3=NC(CC(=O)NCc4cccs4)C(=O)N23)c(C)c1 (stereo not drawn) -11.9%
CCN1CCc2nc3sc(C(=O)Nc4ccccc4OC(F)(F)F)c(N)c3cc2C1 -7.47%
COc1ccc(C)cc1-n1nnc(S(=O)(=O)c2ccc(C)cc2)c1C -21.2%
COc1ccc(CNc2oc(/C=C/c3cc(OC)c(OC)c(OC)c3)nc2C#N)cc1 -15.5%
O=C(Cn1c(-c2cccs2)cc2cc(F)ccc21)N1CCN(c2ccccc2)CC1 -33.8%
CCOc1ccc(Nc2oc(/C=C/c3ccc(OC)c(OC)c3)nc2C#N)cc1 -10.6%
CN1CCCCC1CCN1c2ccccc2Sc2ccc(S(C)=O)cc21 (stereo not drawn) -0.277%
CCN(CC)S(=O)(=O)c1ccc(C(=O)NC2CC(=O)N(c3ccc(OC)c(OC)c3)C2)cc1 (stereo not drawn) -18%
CC(=O)c1ccc(NC(=O)c2cc3sccc3n2Cc2ccc(Cl)cc2)cc1 -12.8%
Cc1ccc(N(CC(=O)NCCSc2ccccc2)S(=O)(=O)c2ccc(F)cc2)cc1 -2.6%
CCOCCCNC(=O)C(=O)Nc1c2c(nn1-c1ccccc1)CSC2 -18.5%
COCCCn1c(=O)c2sccc2n2c(CCCC(=O)Nc3cccc(OC)c3)nnc12 -24.3%
COc1ccc(CNC(=O)c2cc3cccc4c3n2CC(C)S4)cc1OC (stereo not drawn) -31.1%
Cc1cccc(NC(=O)C2CCCN(S(=O)(=O)c3ccc4c(c3)CCCC(=O)N4)C2)c1 (stereo not drawn) -25.9%
COCCCn1c(SCC(=O)Nc2ccc(F)cc2)nc2c(sc3ccccc32)c1=O -13.3%
O=C(c1ccc2c(c1)N(Cc1c(F)cccc1Cl)C(=O)c1ccccc1S2)N1CCCC1 -23.8%
COc1cc(NC(=O)CN2C(=O)COc3ccc(S(=O)(=O)NC4CCCC4)cc32)cc(OC)c1 -3.99%
O=C(CO)N1CCC(c2[nH]nc(-c3ccc(Cl)cc3)c2-c2ccncn2)CC1 -10.8%
CC(=O)N1CCCC1c1nc2ccccc2n1Cc1ccc(F)cc1 (stereo not drawn) -14.9%
CCC(C)c1ccccc1OCC(=O)Nc1ccc(S(=O)(=O)Nc2cc(C)on2)cc1 (stereo not drawn) -6.07%
COc1cc(NS(=O)(=O)c2c(C(=O)N3CCCCC3)c(C)n(C)c2C)cc(OC)c1OC 1.54%
CC1CCc2c(sc3nnn(CC(=O)Nc4c(C(C)C)cccc4C(C)C)c(=O)c23)C1 (stereo not drawn) -26.7%
O=C(Nc1cccc2cccnc12)c1ccc(-c2cccc(Cl)c2)o1 4.32%
CCCn1c2ccccc2c2cnn(CC(=O)NCCCN(CC)c3ccccc3)c(=O)c21 -26.3%
O=C(Nc1sc2c(c1C(=O)NCC1CCCO1)CCC2)c1cc(=O)c2cc(Cl)ccc2o1 (stereo not drawn) 0%
Cc1ccc(CCNC(=O)c2ccc3c(c2)N(Cc2ccccc2F)C(=O)c2ccccc2S3=O)cc1 (stereo not drawn) 2.92%
COc1cccc(NC(=O)CCCn2c(=O)c3cccn3c3cccnc32)c1 17.8%
O=C1C(=O)N(C2CCNCC2)CCN1Cc1ccccc1 0%
COc1ccc(-c2nc(CCNC(=O)c3ccccc3)cs2)cc1OC -16.2%
Fc1ccc(-c2cc(-c3ccccc3)c3c(n2)-c2ccccc2OC3)cc1 -9.57%
Cc1cccc(C)c1NC(=O)CCCn1c(=O)c2cccn2c2ccccc21 -2.29%
CCOC(=O)c1c(S(=O)(=O)NCC(=O)Nc2ccc(C(C)=O)cc2)c(C)n(C)c1C 2.67%
COc1ccc(NC(=O)CN2C(=O)CCc3cc(S(=O)(=O)N4CCOCC4)ccc32)c(OC)c1 -22.6%
CCOc1ccccc1NC(=O)Cn1c(=O)n(-c2ccccc2)c(=O)c2c1c1cc(C)ccc1n2C -11.7%

Reference: PubChem BioAssay AID1508623 (National Center for Advancing Translational Sciences (NCATS), 2021)
